# Results taken from paper PMC4336329 (PLoS ONE, 2015).
# About 14,000 (4.5%) of roughly 310,000 compounds showed an effect of 50% or more. The effect is printed as a negative number. This is one part of the list.
# Target: human ether-à-go-go-related gene (hERG) potassium channel (human, UniProt Q12809)
# Experiment: primary screen, population patch clamp on CHO cells stably expressing hERG
# 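Note: peak tail current of the secondary pulse compared with the same well before compound.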
# human ether-à-go-go-related gene (hERG) potassium channel, sequence (Q12809 whole entry, looked up): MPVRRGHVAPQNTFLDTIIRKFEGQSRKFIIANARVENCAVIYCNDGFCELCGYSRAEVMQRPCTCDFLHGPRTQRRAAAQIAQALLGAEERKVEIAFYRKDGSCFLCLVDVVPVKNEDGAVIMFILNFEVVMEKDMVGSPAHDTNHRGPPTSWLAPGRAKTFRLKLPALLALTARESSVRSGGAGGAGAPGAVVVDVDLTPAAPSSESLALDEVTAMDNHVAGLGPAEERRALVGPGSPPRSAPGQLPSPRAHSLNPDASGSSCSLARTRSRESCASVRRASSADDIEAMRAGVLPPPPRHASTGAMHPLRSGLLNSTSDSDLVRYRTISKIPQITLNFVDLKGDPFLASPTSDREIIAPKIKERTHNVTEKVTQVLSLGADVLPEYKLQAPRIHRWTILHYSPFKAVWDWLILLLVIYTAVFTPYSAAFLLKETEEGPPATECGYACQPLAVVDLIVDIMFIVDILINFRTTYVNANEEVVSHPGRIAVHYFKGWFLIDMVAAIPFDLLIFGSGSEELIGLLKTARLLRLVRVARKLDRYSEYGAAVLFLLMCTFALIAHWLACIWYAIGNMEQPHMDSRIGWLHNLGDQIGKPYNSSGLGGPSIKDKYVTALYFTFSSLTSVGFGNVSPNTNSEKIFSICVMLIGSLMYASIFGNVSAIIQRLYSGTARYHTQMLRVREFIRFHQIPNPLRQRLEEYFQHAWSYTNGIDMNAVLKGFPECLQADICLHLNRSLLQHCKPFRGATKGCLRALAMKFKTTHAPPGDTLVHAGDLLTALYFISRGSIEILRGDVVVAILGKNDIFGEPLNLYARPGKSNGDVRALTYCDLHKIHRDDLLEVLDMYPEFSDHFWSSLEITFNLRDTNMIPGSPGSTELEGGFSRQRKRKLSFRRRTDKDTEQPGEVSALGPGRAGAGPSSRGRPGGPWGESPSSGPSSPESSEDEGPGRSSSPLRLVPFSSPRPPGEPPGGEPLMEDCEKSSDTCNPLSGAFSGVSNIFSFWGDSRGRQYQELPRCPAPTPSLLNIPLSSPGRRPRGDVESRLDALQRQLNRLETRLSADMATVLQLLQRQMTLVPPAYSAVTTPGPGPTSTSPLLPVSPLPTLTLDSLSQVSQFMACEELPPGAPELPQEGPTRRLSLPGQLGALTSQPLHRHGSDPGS
row,Structure (SMILES),"hERG current change (%, negative = inhibition) at 10uM [%]"
1,CC(Nc1c[nH]c(=O)[nH]c1=O)c1ccccc1 (stereo not drawn),14.8
2,COc1ccc(/C=C(/NC(=O)c2ccccc2)C(=O)N2CCCCC2)cc1OC,-7.13
3,O=C(O)CC1NC(=O)N(C2CCCCC2)C1=O (stereo not drawn),6.18
4,NC(=O)CN(c1ccccc1)C1SC(=O)N(Cc2ccccc2)C1=O (stereo not drawn),-7.07
5,S=C(Nc1ccc(Cl)cc1)c1sc(N2CCCCC2)nc1N1CCOCC1,16.8
6,CC1CCC(C(C)C)C(OP(=O)(c2ccccc2)C(O)c2ccncc2)C1 (stereo not drawn),13.8
7,CC(=O)N1CCN(Cc2cc(=O)n3cc(Cl)c(C)c(Cl)c3n2)CC1,-3.72
8,CC(C)(C)C(=O)Nc1ccc(S(=O)(=O)N2CC3CC(C2)c2cccc(=O)n2C3)cc1 (stereo not drawn),9.99
9,O=S(=O)(c1ccccc1)N1CCN(C(c2ccccc2)c2ccc(OC(F)(F)F)cc2)CC1 (stereo not drawn),19
10,Cc1cc(NC(=O)CCC(=O)N(CC2CCCO2)C(C(=O)NC2CCCC2)c2cccnc2)no1 (stereo not drawn),12.9
11,CCCCn1c(=O)[nH]c(=O)c2c1nc(-c1ccccc1F)n2Cc1ccccc1,9.61
12,CCCCNC(=O)NNC(=O)c1ccc(F)cc1,0.168
13,CCN1CCSc2ccc(C(=O)NCc3ccccc3F)cc21,-20.8
14,O=C(CNC(=O)c1cccc(F)c1)N/N=C/c1cccnc1,6.58
15,O=C1C(NS(=O)(=O)c2cccs2)=C(N2CCN(Cc3ccccc3)CC2)C(=O)c2ccccc21,-35.2
16,CCC(CC)=NNc1cccc([N+](=O)[O-])c1,16.9
17,O=C1c2ccccc2C(=O)N1CCC#Cc1ccc2cc(CCO)oc(=O)c2c1,15.7
18,COc1ccc(-c2cn(-c3ccc(C)cc3C)c(=O)[nH]2)cc1OC,5.96
19,Cc1ccc(C)c(N2CCN(S(=O)(=O)c3cccc4cccnc34)CC2)c1,-22.9
20,Cc1ccccc1SCC(=O)NCCCn1ccnc1,-18.8
21,CCC(C(=O)OCC(=O)NC(=O)c1ccccc1OC)c1ccccc1 (stereo not drawn),10.6
22,CC(OC(=O)CN1C(=O)NC2(CCCC2)C1=O)C(=O)c1ccc(C(C)(C)C)cc1 (stereo not drawn),-28.7
23,CCNC(=O)N1CCN(CCCC(c2ccc(F)cc2)c2ccc(F)cc2)CC1.Cl,-82.3
24,O=C(CSc1nc2ccccc2c(=O)n1-c1ccccc1)N1CCCC1,-3.59
